In PubChem BioAssay AID1963576 (National Center for Advancing Translational Sciences (NCATS), 2024):
Out of some 46,000 compounds screened, about 60 (0.1%) were called active. Not shown: some 3% with an inconclusive outcome. Calls follow the shape of the dose curve; as a rule, active = well fitted inhibition curve with a large enough effect; inconclusive = small, poorly fitted or top-dose-only effect; inactive = no such curve, though single readings can be large or run the other way. Some of the results follow.

assay: Primary qHTS assay for Inhibitors of ovarian cancer metastasis using an organotypic tumor microenvironment (TME) model.; also: nearly all actives have a fitted effect of over 65% in size;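 as to activity change, negative = inhibition: plate controls were DMSO wells for no effect and tomatine positive control wells for full effect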; conditions: SKOV3ip1-GFP adhesion/invasion on 3D omental model, fluorescence; series mostly up to 45.8 µM; activity change, negative = inhibition: at the top concentration
In short: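 Adhesion/invasion was scored as fixed GFP-labeled SKOV3ip1 cell counts (488/509 nm), normalized to DMSO and tomatine controls. Cancer cells in serum-free medium, with four compound doses (0.36-46 umol/L), sat 2 hr at RT then 16 hr at 37 C on a 48 hr fibroblast/mesothelial/ECM culture.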

Activity change, negative = inhibition, inactive:
Cc1ccccc1NC(=O)Cn1c(=O)n(CCCCCC(=O)NCc2ccc3c(c2)OCO3)c(=O)c2sccc21 -15.6%
CCOc1ccc(NC(=O)c2sc3nc(-c4ccc(OC)cc4)cn3c2C)cc1 -7.26%
COc1cc(NC(=O)C2CCCN(S(=O)(=O)c3cn(C)cn3)C2)cc(OC)c1 (stereo not drawn) 2.81%
COc1ccc(-c2nsc(NC(=O)c3ccccc3Br)n2)cc1 -20.4%
Cc1ccc(Nc2ccc(N3CCN(C(=O)c4ccc([N+](=O)[O-])cc4Cl)CC3)nn2)cc1 -4.67%
O=C(NC1CC(=O)N(c2ccc(Cl)cc2)C1)C(=O)c1c[nH]c2ccccc12 (stereo not drawn) -7.99%
Cc1nnc(N2CCN(C(=O)Nc3cc(F)ccc3F)CC2)c2nn(-c3ccc(Cl)cc3)c(C)c12 2.87%
CC(=O)c1cccc(NS(=O)(=O)c2cccc(S(=O)(=O)c3ccc(Br)cc3)c2)c1 1.85%
COc1ccc(N2CCN(C(=O)CSCc3ccc(C)cc3)CC2)cc1 -1%
COc1ccc(-c2nc(CSCC(=O)N3CCN(c4ccccc4)CC3)c(C)o2)cc1 8.82%
Cc1c(Cl)cccc1Nc1nn2c(=O)c3ccc(C(=O)N(C)Cc4ccccc4)cc3nc2s1 0.0587%
CCOc1cc(S(=O)(=O)NCCc2c(C)[nH]c3ccc(C)cc23)ccc1Br -18.4%
Cc1ccc2nc(COc3cccc(NC(=O)COc4ccc(F)cc4)c3)cc(=O)n2c1 -11.2%
O=C(Nc1cccc(-c2nc3ccccc3o2)c1)c1cccc2c(Cl)cccc12 1.89%
COCCNC(=O)c1[nH]c2cc(C)ccc2c1Sc1ccc(Cl)cc1 16.8%
CC(C)(C)OC(=O)N1CCC(c2c(C(=O)Nc3ccc4c(c3)OCO4)cnn2-c2ccccc2)CC1 -15.9%
Cc1ccccc1NC(=O)c1ccc(N(Cc2ccccc2)S(C)(=O)=O)cc1 1.35%
COc1ccc(CNC(=O)c2cnc3ccc(C)cn3c2=O)cc1 7.39%
O=C(COc1ccccc1)OCc1cc(=O)n2nc(-c3cccs3)sc2n1 -20.7%
CC(C)OC(=O)OCOP(=O)(CO[C@H](C)Cn1cnc2c(N)ncnc21)OCOC(=O)OC(C)C 11.3%
CCOCCCn1c(=N)c(S(=O)(=O)c2ccc(Cl)cc2)cc2c(=O)n3cccc(C)c3nc21 7.42%
COC(=O)c1ccccc1NC(=O)CCS(=O)(=O)c1nc(-c2ccc3c(c2)OCO3)cc(C(F)(F)F)n1 -11.6%
COC(=O)c1ccc(NC(=O)CCc2c(C)nn(-c3ccc(N4CCCCC4)nn3)c2C)cc1 -3.39%
C[C@@H]1[C@H](C)CC[C@]2(C(=O)O)CC[C@]3(C)C(=CC[C@@H]4[C@@]5(C)CC[C@H](O)C(C)(C)[C@H]5CC[C@]43C)[C@@H]12 4.13% [at 92.2 µM]
COc1ccccc1NC(=O)C(=O)NCC(c1cccnc1)N1CCc2ccccc2C1 (stereo not drawn) 6.85%
COc1cccc(CNC(=O)Cn2c(=O)oc3cc(S(=O)(=O)N4CCCCCC4)ccc32)c1 -2.51%
C=Cc1ccc(Cn2c(SCC(=O)N3CCN(c4ccc(F)cc4)CC3)nc3ccccc32)cc1 4.99%
Cc1ccccc1CNC(=O)C(=O)NCC(c1cccs1)S(=O)(=O)c1cccs1 (stereo not drawn) 0.878%
COC(=O)c1cccc(CN2C(=O)SC(Nc3ccc(C)cc3)C2=O)c1 (stereo not drawn) 1.31%
CCc1ccc(NC(=O)Cn2c(=O)c3cc(Cl)ccc3n3nncc23)cc1 0.922%
CN1CC(=O)N(CC(=O)Nc2ccc(OC(F)(F)F)cc2)c2ccccc2C1=O 7.41%
CCOc1ccc(-c2cc(C(=O)NCCc3ccc(OC)c(OC)c3)[nH]n2)cc1 -1.11%
COc1ccc(-n2nc(C(=O)Nc3cc(C)ccn3)c3c4ccccc4n(C)c3c2=O)cc1Cl -1.18%
CC(=O)Nc1nonc1-c1nnc(SCc2ccccc2)n1C -1.16%
CC(=O)c1ccc(N2CCN(c3ccc4cc(S(=O)(=O)N5CCC(C)CC5)ccc4n3)CC2)cc1 4.2%
COc1cc(C2CC(=O)Nc3c2c(=O)n(C)c2ncnn32)cc(OC)c1OC (stereo not drawn) 9.9%
CCOC(=O)c1ccc(NC(=O)CCc2nc3cccnc3n2Cc2cccs2)cc1 0.519%
Cc1cccc(NC(=O)/C(C#N)=C/c2ccc(C)o2)c1 -4.36%
Cc1ccc(S(=O)(=O)c2cn(CC(=O)Nc3ccc(Cl)cc3)c3ccc(F)cc3c2=O)cc1C -19%
Cc1cccc(Cn2c(Cc3ccccc3)nc3ccccc32)c1 -2.41%
CSc1ccc(CCNC(=O)c2c(C)oc3ncn(C)c(=O)c23)cc1 -1.31%
COc1ccccc1N1CCN(c2ncnc3c2c(-c2ccccc2)cn3-c2cccc(C)c2)CC1 2.72%
CC1CCN(S(=O)(=O)c2csc(C(N)=O)c2)CC1 -7.97%
CCN1CCN(c2ncnc3c2cnn3-c2cc(Cl)ccc2C)CC1 2.12%
CCOC(=O)c1c(S(=O)(=O)NCC(=O)N(C)Cc2ccccc2)c(C)n(C)c1C 3.98%
CCOC(=O)c1cnc(N2CCN(c3ccc(OC)cc3)CC2)c2ccccc12 -7.3%
CCOc1ccc2c(c1)c(=O)c(S(=O)(=O)c1ccc(C)cc1)cn2Cc1ccccc1Cl 8.54%
COc1ccc(-c2cc(=O)c3c(O)cc(O[C@@H]4O[C@H](CO[C@@H]5O[C@@H](C)[C@H](O)[C@@H](O)[C@@H]5O)[C@@H](O)[C@H](O)[C@@H]4O)cc3o2)cc1O 0.669%
CC(=O)Nc1nonc1-c1nnc(SCC(=O)Nc2ccc(C)c(Cl)c2)n1C 2.25%
O=C(CSc1oc(-c2ccc(F)cc2)nc1S(=O)(=O)c1ccc(Br)cc1)NC1CCCCC1 -4.99%
CCCOc1ccc(C2c3c(oc4ccc(F)cc4c3=O)C(=O)N2CCc2ccc(OC)cc2)cc1 (stereo not drawn) 4.59%
Cc1cccc(CN2CCC(CNc3ncnc4onc(-c5ccc(Cl)cc5)c34)CC2)c1 -3.56%
CCCCOC(=O)c1ccc(Nc2ncnc3c2cnn3-c2cccc(C)c2)cc1 -8.18%
Cc1ccc(CNC(=O)CN2C(=O)CC(c3ccc(C)c(C)c3)=Nc3ccccc32)cc1 2.44%
COc1ccc(-c2nc(S(=O)(=O)c3ccc(C)cc3)c(N3CCCCC3)o2)cc1 -6.04%
CCCCN(CC)C(=O)CCCn1c(=O)c2cccn2c2ccccc21 -0.946%
COc1cccc(N2CCN(c3ncnc4c3c(-c3ccccc3)cn4-c3ccc(F)cc3)CC2)c1 -17.9%
O=C(NCc1cccc(Cl)c1)NCc1noc2ccccc12 4.41%
COc1ccccc1NC(=O)CSc1nc2c(oc3ccccc32)c(=O)n1Cc1ccco1 109%
Cn1cnc([N+](=O)[O-])c1Sc1ncnc2nc[nH]c12 14%
COc1ccc(NC(=O)C2CCCN(S(=O)(=O)c3cccc4nonc34)C2)cc1Cl (stereo not drawn) 5.23%
Cc1ccc(-c2nnc3c4ccccc4c(C)nn23)cc1NC(=O)c1cccc(Br)c1 -5.91%
Cc1ccc(Cl)cc1N(C)C(=O)C1CCCN(c2ncnc3onc(-c4ccc(F)cc4)c23)C1 (stereo not drawn) -1.87%
Cc1ccc(Cn2c(CCNC(=O)C(C)C)nc3ccccc32)cc1 -5.64%
CCOC(=O)CCc1c(C)nc2c(c(C)nn2-c2ccc(C)cc2)c1C 44.3%
O=C(Cn1nc(-c2ccc(Cl)cc2)ccc1=O)NCCc1ccccc1 -8.24%
COCCn1c(C)cc(O)c(C(c2ccc(F)cc2)N2CCC(C)CC2)c1=O (stereo not drawn) 5.03%
COc1ccc(-n2nc3c(N4CCCC(C(=O)NCCc5ccccc5C)C4)nnc(C)c3c2C)cc1 (stereo not drawn) -24.2%
COc1ccc(-n2c(=O)c3ccc(C(=O)NCc4ccc(C)cc4)cc3n(Cc3ccc(Cl)cc3)c2=O)cc1 5.85%

outcome, inactive:
CC(=O)N1CCc2c(sc3c2c(=O)n(CCc2ccccc2)c(=O)n3Cc2ccc(F)cc2)C1
CCOc1ccc(NC(=O)CCS(=O)(=O)c2cc3c4c(c2)CCN4C(=O)CC3)cc1
CCc1ccccc1NC(=O)CCc1c(C)nc2cc(-c3ccccc3)nn2c1C
CC(=O)Nc1ccc(NCc2nnc3n2CCCCC3)cc1
CCOC(=O)c1cc2c(=O)n3ccccc3nc2n(CC(C)C)c1=NC(=O)C(C)Oc1ccccc1 (stereo not drawn)
O=c1[nH]c(SCc2c(F)cccc2Cl)nc2c1CCCC2
COc1ccc(NC(=O)c2cc3c(C)nn(-c4ccccc4)c3s2)c(OC)c1
Cc1cc(C)cc(-n2c(SCC(=O)NC3CCCCC3)nc3c([nH]c4ccccc43)c2=O)c1
Cc1ccc(NC(=O)CCS(=O)(=O)c2ccc3c(c2)oc(=O)n3C)c(Br)c1
CCc1nn(CC(=O)NC(C)CC)c(=O)c2cc3occc3n12 (stereo not drawn)
Cc1c(Cl)cccc1NC(=O)c1cc2nc(-c3ccc4c(c3)OCO4)cc(C(F)(F)F)n2n1
COc1ccccc1CNc1ncnc2c1nnn2C
COC(=O)c1c(-c2cccs2)csc1NC(=O)c1ccc(C(C)C)cc1
O=C(NCc1ccc2c(c1)CCN2C(=O)c1ccncc1)c1ccccc1F
O=C(NCc1ccc(F)cc1)c1ccc2oc(=O)n(Cc3ccccc3)c2c1
O=c1c2oc3ccccc3c2n(Cc2cccc(F)c2)c(=O)n1Cc1ccc2c(c1)OCO2
CCC(=O)Nc1cccc(-c2nc3cc(C)ccc3o2)c1
O=C(CN1c2ccccc2S(=O)(=O)c2ccccc21)Nc1cccc(C(F)(F)F)c1
COc1ccc(N2CCN(C(=O)C3CCN(c4nc5ccc(C)cc5[nH]4)CC3)CC2)cc1
Clc1cccc(-n2cc(-c3ccccc3)c3c(NC4CCCC4)ncnc32)c1
COc1ccc(CNC(=O)CCNS(=O)(=O)c2ccc3c(c2)CCCC(=O)N3)cc1
COc1ccc(-c2nc(SCC(=O)NCc3ccccc3Cl)n[nH]2)cc1
O=C(C1CCC1)N1CCc2cc(S(=O)(=O)NCCc3ccccc3)ccc21
Cc1nn(-c2ccc(N3CCCC3)nn2)c(C)c1CCC(=O)N1CCN(c2ccccc2F)CC1
